The values below come from patent US20250129132A1 (University of Washington, published 2025).

The target of the test is T1, SpyTag-azide peptide ST-N3, H-SEQ ID No. 51 (N3)-NH2 (ε-amino group of the C-terminal lysine functionalised with 4-azidobutanoic acid (N3); C-terminal amide).
T1 construct: Made by Fmoc solid-phase synthesis; also called synthetic SpyTag peptide
T1 peptide: AHIVMVDAYKPTKGSGK
Kind of test: pre-reaction of SC-cUnaG (2 µM) with ST-N3 (20 µM), 48 h at 25 °C; read out by loss of UnaG reconstitution. The source says: FIG. 17A-17B: Assessing background fluorescence in the UnaG (SEQ ID No. 41) LASL system. […] This could be attributed to one of several potential mechanisms: FIG. 17A: (1) non-covalent association of pSC (SEQ ID No. 26) and ST could locally concentrate UnaG (SEQ ID No. 41) fragments to promote re-assembly, (2) nUnaG and cUnaG fragments could weakly associate non-covalently in a manner stabilized with bilirubin and independent of the fused pSC (SEQ ID No. 26)/ST (SEQ ID No. 7, SEQ ID No. 8), or (3) some combination thereof. To assess, we pre-reacted pSC-cUnaG (SEQ ID No. 39) and SC-cUnaG (SEQ ID No. 37) with a synthetic SpyTag peptide (SEQ ID No. 7. SEQ ID No. 8, ST-N₃) (Methods S15-16). […]
pSC-cUnaG (SEQ ID No. 39) and SC-cUnaG (SEQ ID No. 37, 2 μM in Tris Buffer) were incubated with or without ST-N₃ (SEQ ID No. 7, SEQ ID No. 8, 20 μM) for 48 h at 25° C. Fluorescence reconstitution was determined by combining equimolar amounts of ST-N₃—(SEQ ID No. 7. SEQ ID No. 8) treated pSC-cUnaG (SEQ ID No. 39)/SC-cUnaG (SEQ ID No. 37) with nUnaG-ST (SEQ ID No. 31, all proteins at 1 μM) and excess bilirubin (10 μM). Reconstituted UnaG (SEQ ID No. 41) fluorescence was measured 24 h after nUnaG-ST (SEQ ID No. 31) addition using a fluorescent plate reader in 96-well, black opaque plates (λexcitation=491 nm, λₑₘᵢₛₛᵢₒₙ=528 nm).

B1: SC-cUnaG (SC-SEQ ID No. 55-cUnaG-6xHis) (designed binder)
chain: MVDTLSGLSSEQGQSGDMTIEEDS[no letters for about 80 residues]GKATKGDAHIGGSGGGSGGVKSVVNLVGEKLVYVQKWDGKETTYVREIKDGKLVVTLTMGDVVAVRSYRRATEKLGTLEHHHHHH
notes: also called wild-type SC-cUnaG
Consider B1, for which the binding result is reported as “binds”.
